Data from ChEMBL document CHEMBL1157539, “Thousands of chemical starting points for antimalarial lead identification” (Nature, 2010).
Over roughly 13,000 compounds, “IFI” has its median near 4; the highest 2% begin near 17. This is one part of the list.

Assay: GSK_TCMDC: Inhibition Frequency Index (IFI). The number of non-kinase HTS assays where a compound showed > 50 % inhibition, expressed as a percentage of the number of such assays in which the compound was tested (-0 is zero)
Type: functional

SMILES | IFI
O=C(Nc1cccc(F)c1)NC1CCN(CCCCCNC(=O)C2CC2c2ccc(Cl)c(Cl)c2)CC1 (centres undefined) | 11.5%
CCOC(=O)C1=C(C)NC(Cn2ccnc2)=C(C(=O)OCC)C1c1ccc(C(C)(C)C)cc1 (centres undefined) | 0.71%
c1ccc(CN2CCCN(c3ccc4c(c3)CCN(Cc3ccc(-c5ncc[nH]5)cc3)CC4)CC2)cc1 | 2.54%
O=C(COc1ccc(Cl)c(Cl)c1)NCCCCCN1CCCN(C(=O)Nc2ccc(Cl)c(Cl)c2)CC1 | 14.9%
Clc1ccc(-c2ccc(C=NNc3nc(=Nc4ccccc4)[nH]c(=Nc4ccccc4)[nH]3)o2)cc1Cl | 1.56%
Oc1ccc2ccccc2c1CNCC1CCCCC1 | 3.62%
CCOC(=O)c1ccc(NC(=O)Nc2cccc(-c3ccc(-c4nc5ccccc5[nH]4)cc3)c2)cc1 | 6%
Cc1cc(Nc2cccc(C#N)c2)nc(Nc2ccccc2C)n1 | 3.17%
CCCNCc1ccc(-c2ccc(CN(C(=O)c3nn(-c4ccccc4)nc3C)C3CC3)cc2)nc1 | 5.15%
OCCN1CCN(c2ccc(Nc3ccnc4cc5ccccc5cc34)cc2)CC1 | 7.38%
CN(CCN(C)C(=O)NCc1ccccc1)C(=O)NCc1ccccc1 | -0%
COc1cc(C(=O)NC2CCN(Cc3ccccc3)CC2)ccc1-c1nc2c(Cl)cc(C(F)(F)F)cc2[nH]1 | 0.75%
CC(C)C[C@@H](CNC[C@H](CC(C)C)NC(=O)OC(C)(C)C)NC(=O)OC(C)(C)C | 2.42%
N=C(N)Nc1ccc(Cc2ccc(NC(=N)N)cc2)cc1 | 0.71%
CCN1CCN(c2cc(C)c3cc(NC(=O)c4cccc(OC)c4)ccc3n2)CC1 | 1.34%
Cn1cncc1C(=O)Nc1cccc(-c2cccc(-c3nc4ccccc4[nH]3)c2)c1 | 1.79%
Cc1ccc(NC(=O)NC2CCN(c3ccnc4ccccc34)C2)cc1 (centres undefined) | 1.54%
CCCC1N=C(N)N=C(N)N1c1ccc(OC)cc1 (centres undefined) | -0%
CN(C)CCN(C)Cc1ccc(-c2ccc3c(Nc4ccc(Oc5ccccn5)cc4)ccnc3c2)o1 | 4.44%
Cc1ccccc1/N=C1\NC(=S)N(c2cccc(C(F)(F)F)c2)C12CCC(C(C)(C)C)CC2 (centres undefined) | 0%
COc1ccc(-c2ccc(NC(=O)c3cccc(C#N)c3)cc2)cc1CN1CCCN(C)CC1 | 4.95%
Fc1ccc2[nH]c(-c3cccc(-c4cccc(CN5CCN(c6cnccn6)CC5)c4)c3)nc2c1 | 3.92%
CCn1c(CN2CCN(Cc3ccccc3)CC2)nc2cc(NC(=O)c3cccs3)ccc21 | 3.45%
Fc1ccc(NC(=S)NCCc2ccccc2)cc1 | 2.19%

SMILES | IFI
O=C(c1ccc(Br)o1)N1N=C(c2cccs2)CC1c1ccc(Br)cc1 (centres undefined) | 1.41%
O=C(Nc1ccc(Oc2ccc(OC(F)(F)F)cc2)cc1)c1ccco1 | 5.22%
COc1ccc2nccc([C@@H](O)CN3CCC(CO)(NCc4cc5ccccc5o4)CC3)c2c1 | 4.44%
CCOC(=O)c1ccc(Nc2cc(Nc3ccc(C(=O)OCC)cc3)nc(C)n2)cc1 | 0.75%
Cc1ccc(C(=O)NCC2CCN(c3ccc(C(F)(F)F)cc3NC(=O)c3ccco3)CC2)cn1 | 3.03%
COc1cc2nc(NCc3cccc(CNC(=O)c4ccc(-c5ccc(C(C)=O)cc5)cc4)c3)nc(N)c2cc1OC | 8.7%
N=c1ccn(CC(=NO)c2ccc(Cl)c(Cl)c2)cc1 | 3.68%
CN(C)Cc1cccc(-c2ccc3ccnc(N)c3c2)c1 | 4.42%
c1ccc(OCCCCN2CCCCC2)cc1 | 1.67%
CC(C)(C)OC(=O)N(Cc1cc(-n2nnnc2C(F)(F)F)ccc1O)[C@H]1CCCN(C(=O)OC(C)(C)C)[C@H]1c1ccccc1 | 5.11%
O=C1OC2(CN1CC1CCN(Cc3ccc(O)c(Cl)c3)CC1)c1ccccc1-c1ccccc12 | 5.47%
CCCNC(=O)C1CCN(C(c2ccc(Cl)cc2)c2ccc(Cl)cc2)CC1 | 4.05%
O=C(Nc1ccc(S(=O)(=O)N2CCCC2)cc1)c1cc(-c2cccnc2)nc2ccc(Cl)cc12 | 0%
CCN(CC)CCCN(Cc1ccc(-c2ccc(C(F)(F)F)cc2)cc1)C(=O)Cn1c(SCc2cccc(F)c2F)cc(=O)c2ccccc21 | 7.14%
O=C(Nc1ccc(Cl)cc1C(=O)Nc1cccc(F)c1)c1ccc([N+](=O)[O-])cc1 | 1.43%
CCN1CCN(c2cc(C)c3cc(NC(=O)c4ccc(N(CC)CC)cc4)ccc3n2)CC1 | 5.26%
COc1ccnc(NCCCNCc2cn(S(=O)(=O)c3ccccc3)c3ccccc23)c1 | 5.3%
O=C(/C=C/c1ccc(C(F)(F)F)cc1)NCCCCCN1CCCN(C(=O)Nc2ccc(Cl)c(Cl)c2)CC1 | 20.4%
Oc1cccc(-c2nc(-c3cccc(I)c3)c(-c3ccc(-c4nc(-c5cccc(O)c5)[nH]c4-c4cccc(I)c4)cc3)[nH]2)c1 | 6.12%
CCC/C=C/c1c(CNCCCNc2cc(=O)c3ccccc3[nH]2)sc(CC)c1Br | 7.86%
Cc1cccc2nc(-c3cccc(-c4cccc(CNCc5ccccc5)c4)c3)[nH]c12 | 5.66%
CN1CCN(c2cc(-c3ccncc3)nc(-c3cccnc3)n2)CC1 | 0%
COc1ccccc1N1CCN(CCCCN(C(=O)Nc2cccc(Cl)c2)C(=O)Nc2cccc(Cl)c2)CC1 | 1.48%
CN(CCN1CCCC1)c1nc2cc(-n3cnc4cc(-c5ccc(Cl)cc5)sc4c3=O)ccc2[nH]1 | 12.4%

SMILES | IFI
COc1ccc2nc3cc(Cl)ccc3c(NCc3ccccc3)c2c1 | -0%
CN(Cc1ccc(C#N)cc1)C1CCN(c2cc(NC(=O)c3cccc(F)c3)ccn2)CC1 | -0%
COc1ccccc1C1CCN(C2CCC(NC(=O)/C=C/c3ccc(F)c(F)c3)CC2)CC1 (centres undefined) | 6.67%
CCn1c(=O)c(C(=O)Nc2cc(Cl)c(OC)cc2OC)nc2ccccc21 | 0%
O=C(Nc1cccc(-c2cccc(-c3nc4cc(C(F)(F)F)ccc4[nH]3)c2)c1)c1cccnc1Cl | 9.09%
CCCNCc1ccc(-c2ccc(CN(C(=O)c3nn(-c4ccccc4)nc3C)C3CCOCC3)cc2)nc1 | 4.51%
CCNc1cc(C(=O)N[C@@H](Cc2ccccc2)[C@H](O)CN[C@H](C)c2ccccc2)cc(N2CCCC2=O)c1 | 3.65%
CC(C)(C)c1ccc(C(=O)N2CCC3(CC2)C(=O)N(CC(=O)NCC2CCCO2)CN3c2ccccc2)cc1 (centres undefined) | 1.67%
FC(F)(F)c1ccc2[nH]ccc(=NN=Cc3ccc(Cl)cc3)c2c1 | -0%
CC1CCC(NCc2c(O)ccc3ccccc23)CC1 (centres undefined) | 3.68%
O=C(Nc1ccc(Cl)cc1)N1CCN(C2CCCCC2)CC1 | 0.75%
CC(=O)C1C(=O)CCC1=O | 0%
CCCCCNc1nc(Nc2ccccc2C)nc2ccccc12 | 0.74%
CCOc1cc(Cc2cnc(N)nc2N)cc(OCC)c1OCC | -0%
Cc1cccc2nc(-c3ccc(-c4cccc(NC(=O)C(C)CN5CCN(C)CC5)c4)s3)[nH]c12 (centres undefined) | 1.83%
COc1ccc(-c2ccc(NC(=O)c3cccc(C#N)c3)cc2)cc1CN(C)C | 4%
O=C(NCCCCN1CCC(c2ccc3c(c2OCCO)CCCC3)CC1)c1sc(-c2ccc(C(F)(F)F)cc2)nc1CO | 5.17%
COc1ccc(CNCCCCCCNCc2ccc(OC)c3ccccc23)c2ccccc12 | 8.21%
COc1cc2nc(NCCC(C)C)n3nc(-c4ccccc4)nc3c2cc1OC | -0%
CC(C)c1nc(N2CCN(C(=S)NCc3ccccc3)CC2)c(C#N)c2c1COC(C)(C)C2 | 3.57%
COc1ccc(-c2ccc(CNC(=O)c3cccc(C#N)c3)c(F)c2)cc1CN1CCCN(C)CC1 | 7.59%
CC(Cc1ccc(OCCN2CCN(c3ccc(Cl)cc3)CC2)cc1)NCC(O)c1cccc(C(F)(F)F)c1 (centres undefined) | 18.1%
C=CCOC(=O)N1CCC(CNCc2cccc(-c3ccc(-c4nc5cccc(C)c5[nH]4)s3)c2)C1 (centres undefined) | 3.81%
Nc1ncnc2cc(-c3cccc(NC(=O)Nc4ccccc4)c3)sc12 | 2.14%

SMILES | IFI
O=C(Nc1ccsc1C(=O)NC1CCCCC1)c1ccc(F)cc1 | -0%
Cc1cc(N[C@@H](Cc2ccccc2)C(=O)NCCc2ccccc2)nc(NCCc2ccccc2)n1 | 15.9%
c1cc(CNC2CCN(CC3CCCCC3)CC2)cc(-n2ccnc2)c1 | -0%
COc1ccc(NC(=O)c2c(NC(=O)c3cccs3)sc3c2CCCC3)cc1 | 1.41%
N#Cc1ccc(-c2ccc(C(=O)NCCCCN3CCC(c4ccc5c(c4OCC(N)=O)CCCC5)CC3)cc2)cc1 | 3.54%
Nc1nccc2ccc(-c3ccc4ncccc4c3)cc12 | 7.95%
Cc1nc(N)nc(N)c1-c1ccc(Br)cc1 | 1.52%
O=C(Nc1cccc(-c2csc(NC(=O)c3ccc4ccccc4c3)n2)c1)c1ccc2ccccc2c1 | 2.13%
Cc1c(Cl)ccc2c(C(=O)Nc3ccncc3)cc(-c3cccnc3)nc12 | 1.52%
Cc1nc(C)c(-c2ccc(Oc3ccc(OC(F)(F)F)cc3)cc2)c(OC(=O)c2ccccc2)c1Cl | 0.79%
CN1CCCN(c2ccnc3cc4c(cc23)N(C(=O)c2ccc(Cl)cc2Cl)CC4)CC1 | 0.72%
CCCCCCCCCC(=O)NCC1CC(Br)=NO1 (centres undefined) | 1.54%
Nc1cc(-c2ccc3ccccc3c2)nc2ccccc12 | 5.56%
NCCNc1ccnc2cc(Cl)ccc12 | 2.9%
O=C(Nc1cccc(CN2CCCN(Cc3cccnc3)CC2)c1)c1cc2ccccc2s1 | 3.94%
OC1CCN(c2cc(-c3ccccn3)nc(-c3ccccn3)n2)CC1 | 4.79%
CCN(CC(C)O)C(=O)c1ccc(-c2ccc(-c3nc4cccc(C)c4[nH]3)cc2)cc1 (centres undefined) | 1.39%
O=C(CCc1cccnc1)Nc1cccc(-c2ccc(-c3nc4cc(C(F)(F)F)ccc4[nH]3)s2)c1 | 3.54%
Cc1cc(-c2ccc(CNC3Cc4ccccc4C3)cc2)ccc1S(=O)(=O)NCCN1CCCC1 | 14.3%
CSc1ccc2nccc(Nc3ccc(Oc4ccccc4)cc3)c2c1 | 3.73%
Cc1ccc(OC2CCN(CCCCC3(C)C(=O)Nc4ccccc43)CC2)cc1 (centres undefined) | 2.17%
O=C(Nc1ccc(C(F)(F)F)cc1)c1ccc(S(=O)(=O)NCC2CCCN(CC3CCCCC3)C2)cc1 (centres undefined) | 11.9%
